About 5,800 (2.1%) of roughly 270,000 compounds were called active. Inconclusive results, whose numbers are uncertain, are shown with a selection of clear calls. Calls follow the shape of the dose curve; as a rule, active = well fitted inhibition curve with a large enough effect; inconclusive = small, poorly fitted or top-dose-only effect; inactive = flat fitted curve, though single readings scatter. Potencies of inconclusive entries are doubtful fits and often do not repeat.
target: Microtubule-associated protein tau (Homo sapiens) (UniProt P10636); assay: qHTS for Inhibitors of Tau Fibril Formation, Thioflavin T Binding; details: recombinant tau K18 P301L (four-repeat tau fragment), heparin-induced fibrillization, ThT fluorescence; series mostly up to 57.4 µM; also: nearly all actives have a fitted effect of over 55% in size
Procedure, shortened: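 Recombinant human tau K18 fragment […] carrying P301L, 15 uM unlabeled plus 0.24 uM Alexa 594-labeled, was fibrillized with 20 uM heparin in 100 mM sodium acetate pH 7 for 6 hr at 37 C; 30 uM ThT fluorescence read after 1 hr.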
Potency is read from the fitted curve at half-maximal effect; tags tell the direction and shape of the fitted curve.

Chain of UniProt P10636 (P10636 whole entry, looked up, the tested form may be a part): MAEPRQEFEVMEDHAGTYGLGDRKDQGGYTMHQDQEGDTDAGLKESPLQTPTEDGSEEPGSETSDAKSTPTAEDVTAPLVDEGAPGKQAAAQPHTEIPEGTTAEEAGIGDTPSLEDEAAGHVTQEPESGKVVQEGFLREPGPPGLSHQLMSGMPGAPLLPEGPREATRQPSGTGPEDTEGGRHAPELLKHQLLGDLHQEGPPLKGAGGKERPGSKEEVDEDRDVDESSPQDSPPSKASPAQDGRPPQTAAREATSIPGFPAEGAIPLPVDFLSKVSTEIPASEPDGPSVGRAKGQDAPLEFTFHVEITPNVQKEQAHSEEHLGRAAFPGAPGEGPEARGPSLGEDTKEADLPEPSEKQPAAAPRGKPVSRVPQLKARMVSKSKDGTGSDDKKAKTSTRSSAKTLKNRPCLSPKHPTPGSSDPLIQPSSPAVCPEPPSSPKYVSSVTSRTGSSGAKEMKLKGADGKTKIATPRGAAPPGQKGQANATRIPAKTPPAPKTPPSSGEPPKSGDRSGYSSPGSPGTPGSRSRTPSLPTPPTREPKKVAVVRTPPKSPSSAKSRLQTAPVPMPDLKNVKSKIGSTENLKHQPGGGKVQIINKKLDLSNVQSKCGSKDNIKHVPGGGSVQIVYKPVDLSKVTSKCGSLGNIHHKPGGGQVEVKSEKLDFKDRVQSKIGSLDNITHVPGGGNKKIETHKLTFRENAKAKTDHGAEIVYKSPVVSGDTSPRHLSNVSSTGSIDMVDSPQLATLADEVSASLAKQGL

Structure (SMILES)	Potency
Fc1ccc(F)c(C2=NNC(=Nc3ccccc3F)SC2)c1	inactive
COCCNC(=O)C(c1cccs1)N(C(=O)Cn1nnc2ccccc21)c1ccccc1 (centres undefined)	inactive
CC(=O)NC1(C(F)(F)F)C(=O)Nc2c1c(=O)[nH]c(=O)n2Cc1ccco1 (centres undefined)	inactive
COc1ccc(C)cc1NC(=O)CSc1nc(=O)n(Cc2ccccn2)c2c1CCC2	inactive
O=C(O)[C@H]1CCCC[C@H]1C(=O)Nc1ccc(Nc2ccccc2)cc1	inconclusive: 31.6 µM [inhibitor, single point]
O=C(Nc1nnc(C23CC4CC(CC(C4)C2)C3)s1)c1ccco1	inactive
CCN1C(=O)C(Cc2nc3ccccc3c(=O)n2-c2ccccc2)c2cc(Br)ccc21 (centres undefined)	inconclusive: 8.91 µM [inhibitor, partial curve]
CCc1ccc2nc(N3CCN(C(=O)C4CC4)CC3)sc2c1	inconclusive: 0.447 µM [inhibitor, full curve]
Cc1ccc(S/C(=N\S(=O)(=O)c2ccc(Cl)cc2)c2ccccc2)cc1	inconclusive: 39.8 µM [inhibitor, single point]
CCC(=O)Nc1ccc(NC(=S)NC(=O)c2cc3ccccc3o2)cc1	inconclusive: 15.8 µM [inhibitor, partial curve]
CCCCc1ccc(-c2csc(/C(C#N)=C/c3ccc(C)o3)n2)cc1	inconclusive: 10 µM [inhibitor, partial curve]
O=C(NCc1ccco1)C(c1cccs1)N(Cc1ccccc1)C(=O)Cn1nnc2ccccc21 (centres undefined)	inactive
CNC(=O)CN(c1cccc(Br)c1)S(C)(=O)=O	inconclusive: 0.0891 µM [activator, full curve, poor fit]
Nc1nc(Nc2cccc(Cl)c2)n[nH]1	inconclusive: 15.8 µM [inhibitor, partial curve, poor fit]
CCc1nn(CC(=O)N2CCN(c3cccc(C(F)(F)F)c3)CC2)c(=O)c2cccn12	inconclusive: 8.91 µM [activator, partial curve]
CCN(CC)S(=O)(=O)c1cc(C(=O)OCC(=O)c2ccc3c(c2)NC(=O)CO3)ccc1Cl	inactive
COc1ccc(C2CC(c3c(O)cc(C)oc3=O)=NCCS2)c(OC)c1 (centres undefined)	inconclusive: 14.1 µM [inhibitor, partial curve]
Cc1cc(C)c(OCC(=O)N(Cc2cccc(F)c2)Cc2ccco2)c(C)c1	inconclusive: 25.1 µM [inhibitor, partial curve]
CCc1ccc(C(=O)COC(=O)CCc2nc3ccccc3c(=O)[nH]2)cc1	inconclusive: 25.1 µM [inhibitor, single point]

Source: PubChem BioAssay AID1460 (National Center for Advancing Translational Sciences (NCATS), 2008)
